In all, about 48,000 compounds went through this assay and about 1,200 (2.5%) were called active. Roughly 2% stayed inconclusive and do not appear here.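 Rule for the calls: active = activation of at least 60% and not above a set upper limit (about 1 call in 100 departs from these limits); inconclusive = activation of 40% to 60%, or above that upper limit; inactive = activation under 40%.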 The list shows a part of the results.

Sequence of UniProt O75388 (O75388 whole entry, looked up, the tested form may be a part): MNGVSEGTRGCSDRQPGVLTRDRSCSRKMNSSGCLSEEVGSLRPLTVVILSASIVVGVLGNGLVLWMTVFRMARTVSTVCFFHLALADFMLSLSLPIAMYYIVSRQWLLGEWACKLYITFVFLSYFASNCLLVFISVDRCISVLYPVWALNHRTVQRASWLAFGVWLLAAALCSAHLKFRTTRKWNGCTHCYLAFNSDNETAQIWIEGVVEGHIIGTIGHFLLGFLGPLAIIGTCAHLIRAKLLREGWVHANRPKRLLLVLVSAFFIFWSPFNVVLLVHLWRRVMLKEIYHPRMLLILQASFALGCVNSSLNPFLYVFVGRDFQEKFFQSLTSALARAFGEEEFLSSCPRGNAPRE

The target in this assay is Probable G-protein coupled receptor 32 (Homo sapiens) (UniProt O75388). As to the kind of experiment: qHTS for Agonists of Human Resolvin D1 Receptor DRV1. Note: 0% is about no effect. Particulars: CHO-K1 GPR32 beta-arrestin PathHunter luminescence, 90 min; at 76.9 µM; stronger effect = higher value; zero percent set by DMSO-only wells. In short, it runs like this:
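GPR32 activation in stably transfected CHO-K1 cells, detected as beta-arrestin recruitment by enzyme-fragment complementation. Compound exposure: 90 min, 37 °C.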
On the technique in general: qHTS replaces the single test concentration by a dilution series.
For `COc1ccc(-c2nc3ccc(C(=O)NCc4ccc(C)cc4)cc3nc2-c2ccc(OC)cc2)cc1`, the activation is inactive: -5.32%.

As for `COc1ccc(NC(=O)c2oc3ccccc3c2NC(=O)Cc2ccc(F)cc2)c(OC)c1`, the activation was inactive: -25.8%.

On to `CC1CCN(S(=O)(=O)c2ccc3c(c2)N(CC(=O)Nc2ccc(F)c(Cl)c2)C(=O)CO3)CC1`, for which the activation is inactive: -20.6%.

In the case of `Cc1nn(CC(=O)N2CCN(c3ccccc3)CC2)c(=O)c2cc3sccc3n12`, the activation was inactive: -4.32%.

`COc1ccc(Br)cc1CNC(=O)CCSCc1ccc(Cl)cc1`: the activation is inactive: -28.1%.

On to `CCC(=O)N1CCc2cc(CNS(=O)(=O)c3cc(Cl)ccc3OC)ccc21`, for which the activation was inactive: -14.4%.

As to `Cc1ccc(OCCn2c(COc3ccc(Cl)cc3)nc3ccccc32)cc1`, the activation is inactive: 9.18%.

For the molecule `CCN1CCN(c2cc(C)c3cc(NC(=O)c4cc(OC)cc(OC)c4)ccc3n2)CC1`, the activation was inactive: -21.2%.

As to `Cc1cccc(N2CCN(S(=O)(=O)c3c(C)nc4scc(C)n4c3=O)CC2C)c1` (stereo not drawn), the activation was inactive: 8.12%.

In the case of `Cc1ccc(CCNC(=O)CN2N=C(c3ccc(C)cc3)CCC2=O)cc1`, the activation is inactive: -26.9%.

With `CCc1ccccc1NC(=O)Cn1c(=O)ccc2cc(S(=O)(=O)N3CCC(C)CC3)ccc21`, the activation was inactive: -14.4%.

Take `Cc1c(C(=O)Nc2cccc(Cl)c2)oc2ccc(S(=O)(=O)N3CCOCC3)cc12`: the activation was inactive: 13.1%.

As for `CCC(C)NC(=O)Cn1cnc2sc(C)c(S(=O)(=O)N3CCN(c4ccccc4OC)CC3)c2c1=O` (stereo not drawn), the activation was inactive: -3.21%.

With `COc1cccc(NC(=O)N2CCC(CN3CCOCC3)CC2)c1`, the activation was inactive: 6.56%.

For `COc1ccc(N2C(=O)CCSC23C(=O)N(Cc2ccc(F)cc2)c2ccccc23)cc1Cl` (stereo not drawn), the activation is inactive: -24.7%.

Take `CC1CCN(C(=O)c2ccc(NC(=O)c3nsc4ccccc34)cc2)CC1`: the activation is inactive: -12.5%.

For `CCOC(=O)c1sc(NC(=O)c2nc3nc(C)cc(C(F)F)n3n2)c(C(=O)OC)c1C`, the activation is inactive: 7.99%.

For the molecule `CCOc1cccc(C2c3c(oc4cc(C)c(C)cc4c3=O)C(=O)N2c2nc(C)c(C)s2)c1` (stereo not drawn), the activation was inactive: 9.28%.

On to `COc1cccc(-c2cc(C(=O)Nc3cccnc3Cl)no2)c1`, for which the activation was inactive: 13.4%.

As to `Cc1ccc(NC(=O)CN2C(=O)C(C)(C)c3cc(S(=O)(=O)N4CCCCC4)ccc32)c(Br)c1`, the activation is inactive: -4.95%.

As for `Cn1nc(C(=O)Nc2ccccc2C#N)c2c1-c1ccccc1SC2`, the activation was inactive: -2.26%.

On to `COc1cccc(CNC(=O)CCS(=O)(=O)c2cc3c(cc2C)NC(=O)CO3)c1`, for which the activation is inactive: -4.34%.

Consider `CCc1ccc(-n2c(=O)c3c(C)c(C(=O)N(C)C)sc3n(Cc3cccc(C)c3)c2=O)cc1`, for which the activation was inactive: -10.1%.

For `CCOc1ccc(CNC(=O)CCn2nc(C)c3c(C)n(-c4ccccc4)nc3c2=O)cc1`, the activation was inactive: -15.6%.

For `Cc1ccc(C)c(N2CCN(C(=O)CCCn3ncn4c(cc5occc54)c3=O)CC2)c1`, the activation was inactive: -29.6%.

As for `COc1ccc(C(=O)Nc2ccc(-c3cc4ccccc4oc3=O)c(C)c2)cc1Br`, the activation was inactive: -6.52%.

For `CCN(CCCNC(=O)c1nn(-c2ccc(C)cc2)c(=O)c2c1c1ccccc1n2C)c1ccccc1`, the activation is inactive: 9.46%.

`CN(C)c1ccc(CNC(=O)CCCN2C(=O)CCn3nc(-c4cccn4C)cc32)cc1`: the activation was inactive: -6.42%.

In the case of `Oc1ccccc1-c1nc(/C=C/c2ccccc2Cl)no1`, the activation was inactive: 0.968%.

For `Cc1ccccc1NC(=O)CCc1c(C)nn(-c2ccc(N3CCCCC3)nn2)c1C`, the activation is inactive: -5.47%.

For `COc1cc(-c2nc3sccn3c2Nc2cccc(C)c2)ccc1O`, the activation was inactive: -26.9%.

Turning to `Cc1ccc(O)c(-c2ccnc3cc(-c4ccc(Cl)cc4)nn23)c1`, the activation is inactive: 32.4%.

Consider `Cc1coc2cc3oc(=O)c(CC(=O)NCc4ccc(F)cc4)c(C)c3cc12`, for which the activation was inactive: -4.25%.

For the molecule `Cc1ccc(-n2c(=O)c3c4c(sc3n(Cc3ccccc3F)c2=O)CCC4)cc1C`, the activation was inactive: -0.923%.

As for `Cc1nc(-c2ccc(Cl)cc2)sc1CCNC(=O)c1ccco1`, the activation is inactive: 31.4%.

For the molecule `COc1ccc(C(=O)Nc2ccc3nc(SCc4ccc(C)cc4)sc3c2)cc1`, the activation is inactive: -16.1%.

With `COc1ccccc1OCCCn1c(C2CC(=O)N(c3ccccc3Cl)C2)nc2ccccc21` (stereo not drawn), the activation was inactive: 18.2%.

For `Cc1ccc(Cn2c(=O)n(Cc3nc(-c4ccccc4)no3)c(=O)c3cc4c(cc32)OCO4)cc1`, the activation is inactive: -10.3%.

As to `CC(=O)c1cccc(NC(=O)CCc2c(C)nc3c(-c4ccc(F)cc4)c(C)nn3c2C)c1`, the activation is inactive: 6.17%.

With `O=C(Nc1ccccc1)N1CCN(C(=O)c2nsc3ccccc23)CC1`, the activation is inactive: -9.57%.

Turning to `Cc1ccc(CCNC(=O)CCn2c(=O)c3cccn3c3ccc(F)cc32)cc1`, the activation was inactive: 37.1%.

Turning to `CCCc1nc2sc3c(N4CCCCC4)ncnc3c2c2c1CCCC2`, the activation was inactive: -2.33%.

As to `COc1ccc(OC)c(NC(=O)Cn2cc(S(=O)(=O)c3ccccc3)c(=O)c3cc(C)ccc32)c1`, the activation is inactive: 8.36%.

On to `Cc1cc(=O)n2nc(N3CCC(C(=O)Nc4ccc(C(C)C)cc4)CC3)sc2n1`, for which the activation was inactive: 5.24%.

Take `Fc1cccc(F)c1-c1nc(-c2ccncc2)no1`: the activation was inactive: 7.57%.

On to `COc1cccc(CNC(=O)C2Cc3cc(S(=O)(=O)N4CCCCCC4)ccc3N2C(C)=O)c1` (stereo not drawn), for which the activation is inactive: 8.73%.

On to `CCOC(=O)C1CCN(C(=O)c2ccc3c(c2)sc2nc(-c4ccccc4)cn23)CC1`, for which the activation is inactive: 1.83%.

For `CCN(CC)S(=O)(=O)c1ccc2c(c1)c(=O)c(C(=O)NCc1ccc(Cl)cc1)cn2C`, the activation was inactive: 40.2%.

In the case of `COc1ccc(CC(=O)NCc2ccc3c(c2)CCN3C(C)=O)cc1OC`, the activation was inactive: -20.6%.

Regarding `Nc1c(C(=O)Nc2ccc(Cl)c(C(F)(F)F)c2)sc2nc(-c3ccncc3)ccc12`, the activation was inactive: -18.8%.

As for `Cc1c(C(=O)N(C)C)sc2c1c(=O)n(-c1ccc(F)cc1)c(=O)n2Cc1cc(=O)n2ccccc2n1`, the activation was inactive: -1.91%.

Take `CC(=O)N1CCCc2ccc(NS(=O)(=O)c3ccc(C)c(C)c3)cc21`: the activation was inactive: -13.7%.

Take `CCC(=O)N1CCc2cc(Br)cc(S(=O)(=O)N3CCCC(C(=O)NCc4cccc(OC)c4)C3)c21` (stereo not drawn): the activation is inactive: -9.64%.

For the origin of these results see PubChem BioAssay AID1346428 (National Center for Advancing Translational Sciences (NCATS), 2018).
